Reference: article PMC4157715
No constants are given. Whether binding was seen depends on the method and setting. For some of these results: Binding seen in cells or lysates may run through a third protein. Some entries that bind do so weakly or less than the wild type.

Chains of the proteins cited; added tags and fusions are not shown.
UniProt Q10PZ9: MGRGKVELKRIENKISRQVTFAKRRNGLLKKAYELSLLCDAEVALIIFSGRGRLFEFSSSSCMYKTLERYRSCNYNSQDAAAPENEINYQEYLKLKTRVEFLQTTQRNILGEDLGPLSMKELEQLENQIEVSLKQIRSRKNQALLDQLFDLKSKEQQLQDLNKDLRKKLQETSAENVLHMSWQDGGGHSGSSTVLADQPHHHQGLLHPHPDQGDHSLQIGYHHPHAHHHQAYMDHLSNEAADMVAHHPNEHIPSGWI
UniProt Q40704: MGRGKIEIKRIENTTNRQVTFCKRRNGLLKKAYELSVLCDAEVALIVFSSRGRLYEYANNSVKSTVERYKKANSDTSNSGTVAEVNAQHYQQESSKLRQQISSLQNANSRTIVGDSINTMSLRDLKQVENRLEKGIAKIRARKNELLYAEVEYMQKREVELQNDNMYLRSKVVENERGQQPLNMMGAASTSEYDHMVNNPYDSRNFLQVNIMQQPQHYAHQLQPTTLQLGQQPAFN
UniProt Q0J466: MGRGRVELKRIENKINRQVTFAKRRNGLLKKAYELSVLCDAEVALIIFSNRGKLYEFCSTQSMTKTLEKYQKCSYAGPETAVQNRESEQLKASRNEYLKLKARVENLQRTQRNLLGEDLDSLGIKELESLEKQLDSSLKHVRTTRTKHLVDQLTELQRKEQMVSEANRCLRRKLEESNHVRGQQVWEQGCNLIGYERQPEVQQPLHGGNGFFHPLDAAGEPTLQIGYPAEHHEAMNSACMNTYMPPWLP
UniProt Q7XUN2: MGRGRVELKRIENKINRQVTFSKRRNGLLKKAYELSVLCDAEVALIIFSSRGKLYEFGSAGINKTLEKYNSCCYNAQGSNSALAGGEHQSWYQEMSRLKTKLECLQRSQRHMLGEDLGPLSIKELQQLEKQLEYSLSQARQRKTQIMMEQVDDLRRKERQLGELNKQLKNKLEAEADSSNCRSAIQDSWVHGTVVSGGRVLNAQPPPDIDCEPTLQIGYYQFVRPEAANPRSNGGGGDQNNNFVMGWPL
UniProt Q0D4T4: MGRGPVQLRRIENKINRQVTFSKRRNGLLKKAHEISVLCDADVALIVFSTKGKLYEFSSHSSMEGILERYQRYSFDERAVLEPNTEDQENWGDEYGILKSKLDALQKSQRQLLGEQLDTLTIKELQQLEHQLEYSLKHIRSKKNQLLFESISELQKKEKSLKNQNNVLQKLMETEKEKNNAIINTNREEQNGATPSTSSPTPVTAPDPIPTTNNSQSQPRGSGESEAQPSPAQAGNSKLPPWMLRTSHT
UniProt Q6Q9H6: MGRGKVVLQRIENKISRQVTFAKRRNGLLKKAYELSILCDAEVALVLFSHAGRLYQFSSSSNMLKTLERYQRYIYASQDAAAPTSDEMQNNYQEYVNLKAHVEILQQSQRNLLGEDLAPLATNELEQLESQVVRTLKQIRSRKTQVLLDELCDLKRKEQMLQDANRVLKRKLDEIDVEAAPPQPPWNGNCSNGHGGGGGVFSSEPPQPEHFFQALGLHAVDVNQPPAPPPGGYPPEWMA
UniProt Q69TG5: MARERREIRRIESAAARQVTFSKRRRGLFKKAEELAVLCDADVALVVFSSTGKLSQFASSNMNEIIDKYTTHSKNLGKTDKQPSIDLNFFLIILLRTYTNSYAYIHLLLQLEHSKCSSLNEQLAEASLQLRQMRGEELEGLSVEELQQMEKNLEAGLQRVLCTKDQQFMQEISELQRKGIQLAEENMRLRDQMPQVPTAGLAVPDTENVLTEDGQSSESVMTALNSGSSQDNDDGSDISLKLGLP
UniProt P0C5B2: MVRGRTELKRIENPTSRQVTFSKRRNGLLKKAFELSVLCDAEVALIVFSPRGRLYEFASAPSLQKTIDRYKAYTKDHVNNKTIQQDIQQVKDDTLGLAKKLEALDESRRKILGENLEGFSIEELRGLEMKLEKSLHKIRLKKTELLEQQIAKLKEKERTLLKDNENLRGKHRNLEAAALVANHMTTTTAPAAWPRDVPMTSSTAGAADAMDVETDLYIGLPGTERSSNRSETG
UniProt Q0DEB8: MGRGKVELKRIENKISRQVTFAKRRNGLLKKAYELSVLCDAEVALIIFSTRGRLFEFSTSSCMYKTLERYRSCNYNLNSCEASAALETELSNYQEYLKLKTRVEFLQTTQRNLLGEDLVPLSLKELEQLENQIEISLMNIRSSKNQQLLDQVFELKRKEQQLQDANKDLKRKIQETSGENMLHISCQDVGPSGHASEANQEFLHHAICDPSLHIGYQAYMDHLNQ
UniProt Q6EU39: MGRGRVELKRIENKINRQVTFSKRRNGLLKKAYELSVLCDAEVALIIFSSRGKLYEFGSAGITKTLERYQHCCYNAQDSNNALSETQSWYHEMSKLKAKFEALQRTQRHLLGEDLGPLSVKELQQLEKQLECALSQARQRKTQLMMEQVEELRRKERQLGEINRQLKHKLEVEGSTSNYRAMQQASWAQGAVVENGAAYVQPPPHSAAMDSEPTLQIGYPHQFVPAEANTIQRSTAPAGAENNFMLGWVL
UniProt Q9SAR1: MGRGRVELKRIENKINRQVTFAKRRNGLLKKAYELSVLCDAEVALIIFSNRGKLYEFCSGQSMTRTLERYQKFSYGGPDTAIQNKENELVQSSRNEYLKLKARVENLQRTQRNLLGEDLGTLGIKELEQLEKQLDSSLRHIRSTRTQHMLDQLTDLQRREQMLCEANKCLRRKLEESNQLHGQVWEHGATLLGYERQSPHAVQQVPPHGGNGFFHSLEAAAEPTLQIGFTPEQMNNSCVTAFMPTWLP
UniProt Q10CQ1: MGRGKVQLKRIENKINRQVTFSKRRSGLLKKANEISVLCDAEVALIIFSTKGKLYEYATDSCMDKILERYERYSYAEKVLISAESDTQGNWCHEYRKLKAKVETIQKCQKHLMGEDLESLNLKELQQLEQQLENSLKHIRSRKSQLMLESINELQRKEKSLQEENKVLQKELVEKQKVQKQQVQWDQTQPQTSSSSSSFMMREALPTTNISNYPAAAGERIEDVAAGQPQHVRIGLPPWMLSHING
UniProt Q9XJ66: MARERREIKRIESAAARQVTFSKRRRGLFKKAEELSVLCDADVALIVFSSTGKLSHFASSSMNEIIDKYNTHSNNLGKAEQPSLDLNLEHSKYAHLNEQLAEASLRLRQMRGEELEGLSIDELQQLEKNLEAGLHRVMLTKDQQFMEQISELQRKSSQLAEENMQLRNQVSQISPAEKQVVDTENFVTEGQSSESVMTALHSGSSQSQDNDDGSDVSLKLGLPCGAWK
UniProt Q84NC5: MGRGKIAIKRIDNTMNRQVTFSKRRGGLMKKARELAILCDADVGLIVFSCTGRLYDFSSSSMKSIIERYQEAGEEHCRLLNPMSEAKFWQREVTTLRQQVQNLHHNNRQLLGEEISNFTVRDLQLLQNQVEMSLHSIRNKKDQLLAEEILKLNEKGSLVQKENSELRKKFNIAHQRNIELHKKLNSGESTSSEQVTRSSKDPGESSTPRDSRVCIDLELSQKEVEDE

Assays:
[1] = target: OsMADS29 (rice) (UniProt Q6H711); assay: split reporter; BiFC: YFPn and YFPc fusions co-transfected into onion epidermal (peel) cells by particle bombardment; 10-12 h at 28 °C in the dark; YFP fluorescence microscopy
[2] = target: M29^NLS-MUT (rice) (UniProt Q6H711); assay: as above
[3] = target: M29^∆KC (rice) (UniProt Q6H711); assay: as above
[4] = target: OsMADS29 (rice) (UniProt Q6H711); assay: two-hybrid; M29 bait (pDEST-GBKT7, Gal4 DNA-binding domain) in Y187 mated with preys (pDEST-GADT7, Gal4 activation domain) in Y2H-Gold; growth on quadruple drop out (SD/-His-Leu-Ade-Trp) and blue colour on QDO + X-α-Gal; 3-8 days at 30 °C
[5] = target: OsMADS29 (rice) (UniProt Q6H711); assay: two-hybrid; quantitative α-galactosidase assay of the same bait-prey yeast in liquid SD/-Leu-Trp culture; PNP-α-Gal substrate, sodium acetate pH 4.5, 1 h at 30 °C, OD 410 nm
[6] = target: OsMADS29 (rice) (UniProt Q6H711); assay: split reporter; BiFC: YFPn and YFPc fusions co-transfected into onion epidermal (peel) cells by particle bombardment; 10-12 h at 28 °C in the dark; YFP fluorescence microscopy; remark: listed apart in the source
[7] = target: M29^∆MADS (rice) (UniProt Q6H711); assay: as above

Row | Molecule | binding [1] | binding [4] | binding [5] | other results
1 | M29^LZ-MUT (from UniProt Q6H711 1-260) | binds |  |  | 
2 | M29^NLS-MUT (from UniProt Q6H711 1-260) | binds |  |  | binding [2]: binds
3 | OsMADS1 (from UniProt Q10PZ9 1-257) | binds | binds | binds | 
4 | OsMADS3 (from UniProt Q40704 1-236) | binds | binds | binds | 
5 | OsMADS7 (from UniProt Q0J466 1-249) | binds |  |  | 
6 | OsMADS17 (from UniProt Q7XUN2 1-249) | binds | binds weakly |  | 
7 | OsMADS18 (from UniProt Q0D4T4 1-249) | binds |  | binds | 
8 | OsMADS34 (from UniProt Q6Q9H6 1-239) | binds |  |  | 
9 | OsMADS55 (from UniProt Q69TG5 1-245) | binds | binds | binds | 
10 | OsMADS56 (from UniProt P0C5B2 1-233) | binds | binds | binds | 
11 | OsMADS33 (protein, UniProt Q2QW55 1-202) MVRGKVQMRRIENPVHRQVTFCKRRGGLLKKARELSVLCDADVGVIIFSSQGKLHELATNGNMHNLVERYQSNVAGGQMEPGALQRQQVAEQGIFLLREEIDLLQRGLRSTYGGGAGEMTLDKLHALEKGLELWIYQIRTTKMQMMQQEIQFLRNKEGILKEANEMLQEKVKEQQKLYMSLLDLHSQQPTQPMTYGNRFFSI |  | binds | binds | binding [6]: binds
12 | OsMADS26 (protein, UniProt Q0J8G8 1-222) MARGKVQLRRIENPVHRQVTFCKRRAGLLKKARELSILCEADIGIIIFSAHGKLYDLATTGTMEELIERYKSASGEQANACGDQRMDPKQEAMVLKQEINLLQKGLRYIYGNRANEHMTVEELNALERYLEIWMYNIRSAKMQIMIQEIQALKSKEGMLKAANEILQEKIVEQNGLIDVGMMVADQQNGHFSTVPLLEEITNPLTILSGYSTCRGSEMGYSF |  | binds | binds | binding [6]: binds
13 | M29^∆MADS (domain or fragment, UniProt Q6H711) MYQTVTNTHFEEINHDQQIFVEMTRMRNEMEKLDGGIRRFTGDDLSNLTLADINDLEQQLEFSVTKVRARKHQLLNQQLDNLRRKEHILEDQNSFLCRMINENHHQAAVGGGDVKAMVEMAPVLSMLTAAPAYYGEESSSTALQLTPPLHAVDAAAAAGFRLQPTQPNLQDPGCSSSSFHAAAAGHGLQLW |  |  |  | binding [7]: binds; binding [6]: binds

Further lines, with some results ahead:

Row | binding [1] | binding [4] | binding [5] | Molecule | other results
14 | no binding |  |  | M29^∆KC (from UniProt Q6H711 1-78) (domain or fragment) | binding [3]: no binding
15 | binds | binds | binds | OsMADS5 (from UniProt Q0DEB8 1-225) | 
16 | binds | binds | binds | OsMADS6 (from UniProt Q6EU39 1-250) | 
17 | binds |  |  | OsMADS8 (from UniProt Q9SAR1 1-248) | 
18 | binds |  |  | OsMADS14 (from UniProt Q10CQ1 1-246) | 
19 | binds | binds | binds | OsMADS22 (from UniProt Q9XJ66 1-228) | 
20 | binds | binds weakly |  | OsMADS25 (from UniProt Q84NC5 1-227) | 
21 | binds | binds | binds | OsMADS29 (from UniProt Q6H711 1-260) | 
22 |  |  | binds | OsMADS31 (protein, UniProt Q84NC2 1-178) MGRGRVELKKIENPTNRQVTFSKRRMGLLKKANELAILCDAQIGVIVFSGTGKMYEYSSPPWRIANIFDRYLKAPSTRFEEMDVQQRIIQEMTRMKDENNRLRIIMRQYMGDDLASLTLQDVSNLEQQIEFSLYKVRLRKQQLLDQQLLEMHSRVCNKRIYRFSILPYLIHYIEIIKF | binding [6]: binds
